In the supplement of paper PMC8728848:
The other results are listed elsewhere or left out.

Tests used:
Experiment in all cases: glycan array binding signal (z-score within array); higher = stronger binding
Settings in all cases: glycan notation: IUPAC condensed, linker removed
[1] = biological target: Gal(b1-3)GlcNAc(b1-2)Man(a1-3)[Gal(b1-3)GlcNAc(b1-2)Man(a1-6)]Man(b1-4)GlcNAc(b1-4)GlcNAc
In short: (§1)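 From the Consortium for Functional Glycomics database, 3228 arrays were curated, keeping only those whose protein sequence was available. Binding is given as a within-array Z-score averaged across arrays sharing a protein sequence and across linkers. Negative Z-scores can be read as non-binding.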

[2] = biological target: Gal(b1-3)GlcNAc(b1-2)Man(a1-3)[Gal(b1-3)GlcNAc(b1-2)Man(a1-6)]Man(b1-4)GlcNAc(b1-4)[Fuc(a1-6)]GlcNAc
In short: as §1

[3] = biological target: Gal(b1-3)GlcNAc(b1-2)Man(a1-3)[GlcNAc(b1-4)][Gal(b1-3)GlcNAc(b1-2)Man(a1-6)]Man(b1-4)GlcNAc(b1-4)GlcNAc
In short: as §1

[4] = biological target: Gal(b1-3)GlcNAc(b1-2)[Gal(b1-3)GlcNAc(b1-6)]Man(a1-6)[Gal(b1-3)GlcNAc(b1-2)Man(a1-3)]Man(b1-4)GlcNAc(b1-4)GlcNAc
In short: as §1

[5] = biological target: Gal(b1-3)GlcNAc(b1-3)Gal(b1-3)GlcNAc
In short: as §1

[6] = biological target: Gal(b1-3)GlcNAc(b1-3)Gal(b1-4)Glc
In short: as §1

[7] = biological target: Gal(b1-3)GlcNAc(b1-3)Gal(b1-4)GlcNAc
In short: as §1

[8] = biological target: Gal(b1-3)GlcNAc(b1-3)Gal(b1-4)GlcNAc(b1-2)Man(a1-3)[Gal(b1-3)GlcNAc(b1-3)Gal(b1-4)GlcNAc(b1-2)Man(a1-6)]Man(b1-4)GlcNAc(b1-4)GlcNAc
In short: as §1

[9] = biological target: Gal(b1-3)GlcNAc(b1-3)Gal(b1-4)GlcNAc(b1-2)[Gal(b1-3)GlcNAc(b1-3)Gal(b1-4)GlcNAc(b1-6)]Man(a1-6)[Gal(b1-3)GlcNAc(b1-3)Gal(b1-4)GlcNAc(b1-2)Man(a1-3)]Man(b1-4)GlcNAc(b1-4)[Fuc(a1-6)]GlcNAc
In short: as §1

[10] = biological target: Gal(b1-3)GlcNAc(b1-3)Gal(b1-4)GlcNAc(b1-3)Gal(b1-4)GlcNAc(b1-2)[Gal(b1-3)GlcNAc(b1-3)Gal(b1-4)GlcNAc(b1-3)Gal(b1-4)GlcNAc(b1-6)]Man(a1-6)[Gal(b1-3)GlcNAc(b1-3)Gal(b1-4)GlcNAc(b1-3)Gal(b1-4)GlcNAc(b1-2)Man(a1-3)]Man(b1-4)GlcNAc(b1-4)[Fuc(a1-6)]GlcNAc
In short: as §1

[11] = biological target: Gal(b1-3)GlcNAc(b1-3)Gal(b1-4)GlcNAc(b1-6)[Gal(b1-3)GlcNAc(b1-3)]Gal(b1-4)Glc
In short: as §1

[12] = biological target: Gal(b1-3)GlcNAc(b1-3)Gal(b1-4)[Fuc(a1-3)]GlcNAc
In short: as §1

[13] = biological target: Gal(b1-3)GlcNAc(b1-3)Gal(b1-4)[Fuc(a1-3)]GlcNAc(b1-6)[Gal(b1-3)GlcNAc(b1-3)]Gal(b1-4)Glc
In short: as §1

[14] = biological target: Gal(b1-3)GlcNAc(b1-3)GalNAc
In short: as §1

[15] = biological target: Gal(b1-3)GlcNAc(b1-6)Gal(b1-4)GlcNAc
In short: as §1

[16] = biological target: Gal(b1-3)GlcNAc(b1-6)GalNAc
In short: as §1

[17] = biological target: Gal(b1-3)GlcNAc(b1-6)[Gal(b1-3)]GalNAc
In short: as §1

Gal(b1-3)GlcNAc6S = biological target: Gal(b1-3)GlcNAc6S
In short: as §1

[18] = biological target: Gal(b1-3)[Fuc(a1-4)]GlcNAc
In short: as §1

[19] = biological target: Gal(b1-3)[Fuc(a1-4)]GlcNAc(b1-2)Man
In short: as §1

[20] = biological target: Gal(b1-3)[Fuc(a1-4)]GlcNAc(b1-2)Man(a1-3)[Gal(b1-3)[Fuc(a1-4)]GlcNAc(b1-2)Man(a1-6)]Man(b1-4)GlcNAc(b1-4)[Fuc(a1-6)]GlcNAc
In short: as §1

[21] = biological target: Gal(b1-3)[Fuc(a1-4)]GlcNAc(b1-3)Gal(b1-3)[Fuc(a1-4)]GlcNAc
In short: as §1

[22] = biological target: Gal(b1-3)[Fuc(a1-4)]GlcNAc(b1-3)Gal(b1-4)[Fuc(a1-3)]GlcNAc
In short: as §1

[23] = biological target: Gal(b1-3)[Fuc(a1-4)]GlcNAc(b1-6)GalNAc
In short: as §1

[24] = biological target: Gal(b1-3)[GlcNAc(b1-6)]GalNAc
In short: as §1

[25] = biological target: Gal(b1-3)[Neu5Ac(a2-6)]GalNAc
In short: as §1

[26] = biological target: Gal(b1-3)[Neu5Ac(a2-6)]GlcNAc(b1-4)Gal(b1-4)Glc
In short: as §1

[27] = biological target: Gal(b1-3)[Neu5Ac(b2-6)]GalNAc
In short: as §1

Gal(b1-4)Gal = biological target: Gal(b1-4)Gal
In short: as §1

[28] = biological target: Gal(b1-4)GalNAc(a1-3)[Fuc(a1-2)]Gal(b1-4)GlcNAc
In short: as §1

[29] = biological target: Gal(b1-4)GalNAc(b1-3)[Fuc(a1-2)]Gal(b1-4)GlcNAc
In short: as §1

Gal(b1-4)Glc = biological target: Gal(b1-4)Glc
In short: as §1

Gal(b1-4)Glc6S = biological target: Gal(b1-4)Glc6S
In short: as §1

Gal(b1-4)GlcNAc = biological target: Gal(b1-4)GlcNAc
In short: as §1

[30] = biological target: Gal(b1-4)GlcNAc(a1-6)Gal(b1-4)GlcNAc
In short: as §1

Gal(b1-4)GlcNAc(b1-2)Man = biological target: Gal(b1-4)GlcNAc(b1-2)Man
In short: as §1

[31] = biological target: Gal(b1-4)GlcNAc(b1-2)Man(a1-3)Man(b1-4)GlcNAc(b1-4)GlcNAc
In short: as §1

B1: Gal-9-hFc (Mus musculus), O08573-2 (protein)
chain: MALFSAQSPYINPIIPFTGPIQGGLQEGLQVTLQGTTKSFAQRFVVNFQNSFNGNDIAFHFNPRFEEGGYVVCNTKQNGQWGPEERKMQMPFQKGMPFELCFLVQRSEFKVMVNKKFFVQYQHRVPYHLVDTIAVSGCLKLSFITFQTQNFRPAHQAPMAQTTIHMVHSTPGQMFSTPGIPPVVYPTPAYTIPFYTPIPNGLYPSKSIMISGNVLPDATRFHINLRCGGDIAFHLNPRFNENAVVRNTQINNSWGQEERSLLGRMPFSRGQSFSVWIICEGHCFKVAVNGQHMCEYYHRLKNLQDINTLEVAGDIQLTHVQT
Q: Which “glycan array binding signal (z-score)” value [1] does the source give for B1 here?
A: -0.022

Q: And the “glycan array binding signal (z-score)” value [2]?
A: -0.351

Q: What about the “glycan array binding signal (z-score)” value [3] of the same binder?
A: 0.027

Q: And the “glycan array binding signal (z-score)” value [4]?
A: -0.333

Q: And the “glycan array binding signal (z-score)” value [5]?
A: 0.085

Q: And the “glycan array binding signal (z-score)” value [6]?
A: -0.443

Q: And the “glycan array binding signal (z-score)” value [7]?
A: -0.359

Q: What about the “glycan array binding signal (z-score)” value [8] of the same binder?
A: -0.293

Q: And the “glycan array binding signal (z-score)” value [9]?
A: 1.8

Q: And the “glycan array binding signal (z-score)” value [10]?
A: 1.48

Q: What about the “glycan array binding signal (z-score)” value [11] of the same binder?
A: -0.448

Q: And the “glycan array binding signal (z-score)” value [12]?
A: -0.461

Q: What about the “glycan array binding signal (z-score)” value [13] of the same binder?
A: -0.599

Q: And the “glycan array binding signal (z-score)” value [14]?
A: -0.341

Q: What about the “glycan array binding signal (z-score)” value [15] of the same binder?
A: -0.362

Q: What about the “glycan array binding signal (z-score)” value [16] of the same binder?
A: -0.396

Q: What about the “glycan array binding signal (z-score)” value [17] of the same binder?
A: -0.142

Q: What about the “glycan array binding signal (z-score)” value (Gal(b1-3)GlcNAc6S) of the same binder?
A: -0.189

Q: And the “glycan array binding signal (z-score)” value [18]?
A: -0.32

Q: What about the “glycan array binding signal (z-score)” value [19] of the same binder?
A: 0.508

Q: What about the “glycan array binding signal (z-score)” value [20] of the same binder?
A: 0.06

Q: What about the “glycan array binding signal (z-score)” value [21] of the same binder?
A: -0.533

Q: What about the “glycan array binding signal (z-score)” value [22] of the same binder?
A: -0.478

Q: And the “glycan array binding signal (z-score)” value [23]?
A: -0.078

Q: And the “glycan array binding signal (z-score)” value [24]?
A: -0.035

Q: What about the “glycan array binding signal (z-score)” value [25] of the same binder?
A: 0.317

Q: What about the “glycan array binding signal (z-score)” value [26] of the same binder?
A: -0.501

Q: And the “glycan array binding signal (z-score)” value [27]?
A: -0.454

Q: And the “glycan array binding signal (z-score)” value (Gal(b1-4)Gal)?
A: 0.307

Q: What about the “glycan array binding signal (z-score)” value [28] of the same binder?
A: -0.493

Q: And the “glycan array binding signal (z-score)” value [29]?
A: -0.625

Q: What about the “glycan array binding signal (z-score)” value (Gal(b1-4)Glc) of the same binder?
A: 0.025

Q: And the “glycan array binding signal (z-score)” value (Gal(b1-4)Glc6S)?
A: 0.697

Q: What about the “glycan array binding signal (z-score)” value (Gal(b1-4)GlcNAc) of the same binder?
A: -0.167

Q: And the “glycan array binding signal (z-score)” value [30]?
A: -0.601

Q: And the “glycan array binding signal (z-score)” value (Gal(b1-4)GlcNAc(b1-2)Man)?
A: 0.241

Q: And the “glycan array binding signal (z-score)” value [31]?
A: -0.294
